Here are results for 1 compound from PubChem BioAssay (NCI).

The structures appear in SMILES notation. Some structures have more than one record in an assay (separate samples or runs), and their calls can disagree.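 Note: values are percent growth. 100 is the growth of untreated cells, values between 100 and 0 indicate rising inhibition; between -100 and 0 indicates cell death.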 Some entries of the source have several records that differ or are many. Only these are listed. Rule for the calls: active = growth percent below 10; inactive = the rest. There may be further records. These are repeated runs of one drug, at the concentration stated with the values; each value is one run. Marks such as (2×) count equal records among those shown.

One assay has as its system MDA-MB-231 breast. In words: NCI-60 one-dose screen, 48 h (100 = growth as untreated, 0 = no growth, -100 = all killed). Conditions: 25 µM.
The subject of a further assay is PC-3 prostate. The assay is described as above. Conditions: 0.25 µM.

Turning to `COc1cccc2c1C(=O)c1c(O)c3c(c(O)c1C2=O)C[C@@](O)(C(=O)CO)C[C@@H]3OC1CC(N)C(O)C(C)O1` (stereo not given in full), the growth entry with MDA-MB-231 breast (runs of 1996) is “active: -57.2, -32.7, -63.7, -61.2, -42.1, -46.3, -47.3, -37.9, -26.8, -39.3, -47.9, -50.6, -63.9, -10.4, -54.9, -56.4, -51, -39.2, -67.2, -36.4, -32.1 (2×), -46.6, -40.7, -58.7, -19.1, -44.1, 1.37, -45.5, -64.5, -59.8, -59.9, -54.5, -66.5, -51.9, -46.8, -70.1, -55.5, -56.3, -66, -40.9, -100, -61.6, -51.2, -55.9, -49.4, -59.3, -66.2, -53, -23.1, -95.2, -62.8, -33.3, -20.1, -28.4, -53.1% and inactive: 88.3%, 23.8%, 19.4%”; in the assay with MDA-MB-231 breast (runs of 1997) it was “active: -63.5, -39.1, -52.6, -50.8, -59.4, -9.88, -55.3, -37.5, -22.1, -58, -44.6 (2×), -25.4, -53.3, -65.7, -54.3, -45.3, -77.1, -52.9, -23.9, -55.6, -50.2 (2×), -49.5, -66.2, -51.1 (2×), -38, -48.9, -11.5, -24.5 (2×), -39.2, -33.7, -73.1, -31.2, -64.8, -60.2, -47.3, -9.36, -50.9, -21.4, -31.6%”; with MDA-MB-231 breast (runs of 1998) it was “active: -64.4, -25.8, -26.4, -83.9, -39.9, -60.1, -27.3, -12.8, -50.9, -38.6, -31.9, -41.8, 0.113, -52.4, -29.3, -56.1, -62.4, -53.5, -7.03, -54.9, -57.2, 1.91, -38, -47.5, -56.6, -23.2%”; in the assay with MDA-MB-231 breast (runs of 1999) it was “active: -64.2, -11.7, -51.8, -67.7, -58.3, -100 (3×), -62.5, 0.0452, 2.07, -64.6, -23.3, 1.36%”; in the assay on MDA-MB-231 breast (runs of 2000), “active: -100% (2×), -70.5%, -96.9%”; in the assay with PC-3 prostate (runs of 2006) it was “inactive: 48%, 51.6%”. The growth result in the assay on PC-3 prostate (runs of 2007) is “inactive: 43.9, 61.6, 56.6, 63.6, 65.2, 63.5, 60.2, 69.5, 49.3, 64.7, 60.7, 58.9, 59.3, 66.2, 49.9, 60.9, 65.5, 69.1, 69.6, 67.7, 61.5, 64.5, 72.5, 54.1, 73, 64.9, 69.9, 10.3, 55.4, 77.3, 65.4, 71.3, 40.2, 61.2, 68.5, 54.6, 72.2, 49.5, 37.7, 72.6%”; with PC-3 prostate (runs of 2008), “inactive: 66.7, 71.2 (2×), 59.4 (2×), 64.6 (2×), 70.9, 69 (2×), 60.7, 69.8, 67.7, 72.5, 70.1, 49.7, 51.7, 59.3, 29.1, 41.9, 50.3, 50.8 (2×), 31.9, 60.2, 59.2, 90.7, 44.2, 73.8, 67.5, 74.1, 74.6, 74.3, 62.7, 57.8, 63.8, 49.9, 64.4, 58.5, 60.1, 65.4%”; in the assay on PC-3 prostate (runs of 2009), “inactive: 67.8, 61.1, 66.6, 71.1, 76.3, 56.5, 69.1, 67.5 (2×), 64.4, 55.3, 61.5, 78.4, 65 (2×), 69.9, 68.2 (2×), 66.2, 65.7, 68.6, 68.4, 48.1, 55.8, 43.7, 55.5 (2×), 69.7 (2×), 61, 70.7, 63, 67.9, 53.7, 53, 57, 61.3, 57.2, 62, 52.7, 56.7, 57.1, 58.2, 59.8, 53.9, 70.4, 73.2, 63.9, 47.2, 59.7, 52.8, 59.3, 70.9, 81.2, 71.9, 74, 60.8, 69.5, 65.3, 63.7, 60.3, 62.5%”; in the assay on PC-3 prostate (runs of 2010) it was “inactive: 67.6 (2×), 59.4, 70.1, 61.9 (3×), 73, 66.6, 68.9, 66.2 (3×), 58.5, 59.6, 66 (2×), 61.5, 58.8, 62.5, 62.7, 75.1, 49.1, 64.4 (2×), 50.2, 64.5, 62.4, 54.9, 60.4, 67.2, 67.8, 54.1, 69.9, 66.3, 65.9, 57.8, 61.7, 64.8, 69.6 (2×), 65.3 (2×), 70.7 (2×), 67.5, 64.7, 63.5, 68.2, 56.2, 61.6, 63.8%”; in the assay with PC-3 prostate (runs of 2011), “inactive: 57.4 (2×), 59.2, 64.4, 64.6, 63.4 (2×), 67.3 (2×), 72.3, 63.7, 47, 61.7, 65.4 (2×), 62.6, 62.3 (2×), 68.2, 64.2, 61.1, 70.3 (2×), 70.5, 75.2, 72.2, 78.8, 77.9, 72.7, 71.5, 79.1, 69.4, 72.9, 60.4 (2×), 61.6, 63.5, 59.7, 57, 62.5, 55.5, 49.7, 66.3, 72.6, 71.6, 68.9, 70, 56.6, 74.9, 65, 68.5, 67.9, 73.5%”; in the assay on PC-3 prostate (runs of 2012) it was “inactive: 69.4, 56.5, 63.8, 57 (2×), 65.5, 64.7, 60.2, 56, 57.3 (3×), 61, 61.8 (2×), 58.3 (2×), 55.1, 59.2 (2×), 66.3, 59.4, 59.5 (2×), 61.6, 57.5, 61.3, 63.5, 60.1 (2×), 68.2, 64.8, 62 (2×), 64.6, 60.4 (2×), 61.2 (2×), 55.6 (2×), 36.5, 53.7, 60.6, 57.6, 45.1, 46.8, 73.9, 73.4, 67.7, 72.1, 70.2, 72, 70.6, 71, 54.9, 49.9, 56.8 (2×), 50.7, 49.7, 56.6, 63, 59.3, 51.7%”. The growth entry in the assay on PC-3 prostate (runs of 2013) is “inactive: 61.7, 64.2, 60.9, 62.1, 51.2 (2×), 65.9, 63.8 (2×), 69.8, 65.3, 70.1, 72.7 (2×), 69.5 (2×), 67.5, 64.9 (2×), 69.1 (2×), 72.2, 75.9, 71.3 (2×), 67.9 (2×), 56.9, 72.3, 67.2, 69.2 (3×), 65.2 (2×), 68.6, 65.4 (2×), 68.2, 81.1, 72.1, 60.2, 71, 62.4 (2×), 63.6, 62.3, 59.5, 67.8, 69.6, 50.9, 44.9, 61 (2×), 62, 60.8, 52.2, 51.7, 52, 52.5, 48.6, 57.1, 53.6, 58.7, 63.1, 54.7, 60.7%”; in the assay on PC-3 prostate (runs of 2014) it was “inactive: 60, 65.1 (3×), 47.9, 46.7, 59.4, 45.1, 69.9, 61.3, 56.5, 50.4, 59.3, 38.6, 71.1, 70.5, 59.5, 71.2, 54.1, 53, 65.2 (2×), 61.7 (2×), 69.1, 64.5 (2×), 68.6, 65 (2×), 64.6, 65.5 (3×), 62.4, 58.1, 58.9, 60.3, 57.9, 69.2, 64.9 (2×), 61.8, 64.4 (3×), 73.3, 71.6 (2×), 70.7, 66.7, 66.3, 59.2 (2×), 62.7, 69.6, 64.7, 64, 65.4 (2×), 61, 63.3, 65.9, 62.5, 60.2, 68.5, 60.4, 70, 70.3, 67.7, 67.2, 63.1, 66.6, 69.4%”; with PC-3 prostate (runs of 2015), “inactive: 71.6, 61.5, 56.1, 67.6, 60, 61.3, 63.7 (2×), 65.9, 62.7, 58.8, 57.4, 61.2, 61.9, 68.5, 59.8, 49.9 (2×), 48.9, 55.8 (2×), 53.9, 53.8 (2×), 57.7, 66.4, 55.1 (2×), 57.1, 55.6, 51, 48.7, 52.6, 59.7, 54.6, 53.5 (2×), 57, 54.4, 63.9, 57.2, 63.3, 51.5, 69.2, 61, 60.7, 64.6 (2×), 52, 53, 50.3, 52.4, 50, 53.3 (2×), 44.4, 47.9, 48.6, 50.1, 58.3, 50.2, 54.8, 63.5 (2×), 58.1, 65.3, 67.7, 58.5, 65, 68.9, 70.3, 66 (3×), 69.1, 70.9, 63.6, 69.4, 70.7%”.
